The record followed here is the RNAGym collection of RNA variant scans (doi:10.1073/pnas.2313332121).

The chains are these.
B1: TPR 5TU (parent)
chain: GGAUCUUCUCGAUCUAACAAAAAAGACAAAUCUGCCACAAAGCUUGAGAGCAUCUUCGGAUGCAGAGGCGGCAGCCUUCGGUGGCGCGAUAGCGCCAACGUUCUCAACUAUGACACGCAAAACGCGUGCUCCGUUGAAUGGAGUUUAUCAUG

This sample is rich in variants without activity. Some results are limits rather than exact numbers.

This data set covers variants of B1. The data set can be described thus: polymerase ribozyme fitness, log enrichment relative to wild type (log ratio); higher = more active; in vitro selection for triplet polymerase activity. A digest of the protocol: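 Each subunit of a heterodimeric triplet polymerase ribozyme was represented by a PCR-built, transcribed mutant library that underwent triplicate single-round in vitro selection with frozen incubation at −7 °C. Extended constructs were recovered by gel excision, streptavidin-bead capture and RT-PCR, and Illumina sequencing of input and output libraries kept genotypes with ≥10 input reads and ≥1 read per output. Fitness is the logarithm of genotype enrichment relative to wild-type enrichment, from inverse-variance-weighted replicate averages, with a logarithm base of 2.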
As to C36U U134G U148A, the “polymerase ribozyme fitness (log ratio)” value is -4.04.
As for C38A C93G C96U A115G G117A, the “polymerase ribozyme fitness (log ratio)” value was no more than -4.2.
For the variant A37U C95G, the “polymerase ribozyme fitness (log ratio)” value is -3.51.
The same measure for C38U C93G C125A: -3.39; for A37C C63A C75U G80C A119U: no more than -4.2; for A37C U77G C79U G94C G126U: no more than -4.2.
Consider C38U U55G C87A A106G, for which the “polymerase ribozyme fitness (log ratio)” value is no more than -4.2.
Take A37G C95U: the “polymerase ribozyme fitness (log ratio)” value was -2.43.
Consider A37U A52G G83A G84A A115U, for which the “polymerase ribozyme fitness (log ratio)” value was no more than -4.2.
On to A39C A47U, for which the “polymerase ribozyme fitness (log ratio)” value was -2.53.
In the case of A37G C51U C54A G94C C96A C116A A120G C131G it was no more than -4.2; in that of C36A U45A C87G A91G, no more than -4.2.
In the case of C38U C51U C75U C99G U101C A150C, the “polymerase ribozyme fitness (log ratio)” value was no more than -4.2.
In the case of C38U G81A C105A C129G U144A it was no more than -4.2; in that of A39C G81U C96U C105U A121U U134C U135C U148C, no more than -4.2; in that of C36A U45A G46U G50C A52G A91G A98U, no more than -4.2.
In the case of C36A U56G C87U G88A C99A U127G, the “polymerase ribozyme fitness (log ratio)” value was no more than -4.2.
Turning to C38U A73U, the “polymerase ribozyme fitness (log ratio)” value was 0.0337.
C38G G81A C93G C99G G117A G136U: the “polymerase ribozyme fitness (log ratio)” value is no more than -4.2.
As for C38A C93A G143U, the “polymerase ribozyme fitness (log ratio)” value is -4.12.
Take C38G C87A C93A U111G A115U A142G: the “polymerase ribozyme fitness (log ratio)” value was no more than -4.2.
On to A37G C87U G140U C149G, for which the “polymerase ribozyme fitness (log ratio)” value was no more than -4.2.
On to C38G C76G U82A, for which the “polymerase ribozyme fitness (log ratio)” value is no more than -4.2.
In the case of C38A C87A A107C A121U A138G, the “polymerase ribozyme fitness (log ratio)” value was no more than -4.2.
As to A39G A40G U61A A73G C85U A120U, the “polymerase ribozyme fitness (log ratio)” value was no more than -4.2.
In the case of A39C A41U G84C C85G U102A U130C, the “polymerase ribozyme fitness (log ratio)” value was no more than -4.2.
In the case of A37U U56G G88U C125G it was no more than -4.2; in that of A37U C51G G88A, no more than -4.2.
On to A37C A41U G46A C85A, for which the “polymerase ribozyme fitness (log ratio)” value was no more than -4.2.
In the case of C38A C63G A150G it was -3; in that of C36U C87G U145A, no more than -4.2; in that of A37C G58A G68A U148G, no more than -4.2.
Consider A39C U55G C69A C87G, for which the “polymerase ribozyme fitness (log ratio)” value was no more than -4.2.
Take A39C C93U C103U A110U A150U: the “polymerase ribozyme fitness (log ratio)” value is no more than -4.2.
C36U C51G U55A G67A C93U: the “polymerase ribozyme fitness (log ratio)” value was no more than -4.2.
With C38G A52G U56A C57U A73C G80U C129U U148G, the “polymerase ribozyme fitness (log ratio)” value was no more than -4.2.
For the variant C38U G83C U102G A115U, the “polymerase ribozyme fitness (log ratio)” value was no more than -4.2.
Turning to C38U C75G C76A C87G G140U, the “polymerase ribozyme fitness (log ratio)” value was no more than -4.2.
Take A39C G46A: the “polymerase ribozyme fitness (log ratio)” value is no more than -4.2.
Regarding C38G U77C C123G U139C, the “polymerase ribozyme fitness (log ratio)” value is no more than -4.2.
On to A37C U55A C105A, for which the “polymerase ribozyme fitness (log ratio)” value was no more than -4.2.
Consider C38U U55G G59A G62A C103A G141C, for which the “polymerase ribozyme fitness (log ratio)” value is no more than -4.2.
As for C38U C96G, the “polymerase ribozyme fitness (log ratio)” value was -1.09.
In the case of C36G G70U C76U G84U C99U G141U, the “polymerase ribozyme fitness (log ratio)” value was no more than -4.2.
For the variant C36G U44G A147C, the “polymerase ribozyme fitness (log ratio)” value is no more than -4.2.
Turning to C38U C69A U82A G94U, the “polymerase ribozyme fitness (log ratio)” value is -3.99.
Take C36U A47G A91U C114A A119U U139A: the “polymerase ribozyme fitness (log ratio)” value was no more than -4.2.
As for A39G A40G A64C A66G A91G C103G C125G U127G G140U, the “polymerase ribozyme fitness (log ratio)” value was no more than -4.2.
A37G U77A C87A C99U G140C A147U: the “polymerase ribozyme fitness (log ratio)” value is no more than -4.2.
Take A39C G42C A122U G126C: the “polymerase ribozyme fitness (log ratio)” value is no more than -4.2.
In the case of A37C C43U G84A C114A U130G U151G it was no more than -4.2; in that of C36U C43U C75A C95A, no more than -4.2; in that of A37G A97G C114U A137U A142U, no more than -4.2.
The same measure for C38U C76U C85A A106C: no more than -4.2; for C38U A52C U55G G58A C93U C103G: no more than -4.2; for A37U A40C U55A G58A G59A G84C G126A: -4.07.
In the case of C38U G94U, the “polymerase ribozyme fitness (log ratio)” value was -0.0168.
For A37C A40U G71C C93U C95A A113G, the “polymerase ribozyme fitness (log ratio)” value was no more than -4.2.
In the case of A39C G59U C76G U146G it was no more than -4.2.
Consider C36U G92C C116U C118U U144C, for which the “polymerase ribozyme fitness (log ratio)” value was no more than -4.2.
As to A39C G59A C87A U139G, the “polymerase ribozyme fitness (log ratio)” value was no more than -4.2.
With A37C A60C C69U C85A U146G, the “polymerase ribozyme fitness (log ratio)” value is -3.76.
A37G C54A G141A: the “polymerase ribozyme fitness (log ratio)” value is -2.78.
For C36G U55A U61A C76A C93U U135G, the “polymerase ribozyme fitness (log ratio)” value was no more than -4.2.
In the case of C38A C95A C118A, the “polymerase ribozyme fitness (log ratio)” value is -1.55.
Turning to C38A U55A C85A, the “polymerase ribozyme fitness (log ratio)” value was -2.66.
As to C36A U78C G80U C149U, the “polymerase ribozyme fitness (log ratio)” value was no more than -4.2.
As for A37C C69A U146C C149A, the “polymerase ribozyme fitness (log ratio)” value was no more than -4.2.
Regarding C36A U55A A64U C96A C118G, the “polymerase ribozyme fitness (log ratio)” value is no more than -4.2.
In the case of C38A C96U C99U, the “polymerase ribozyme fitness (log ratio)” value was -0.43.
The same measure for A39G A52G G92A: no more than -4.2; for C38A U61G C69U G84A C85U G140U: no more than -4.2.
For C38G G71A U82G A107U, the “polymerase ribozyme fitness (log ratio)” value is no more than -4.2.
As for C36G G65A G83A A98C, the “polymerase ribozyme fitness (log ratio)” value was no more than -4.2.
A37U C85U C95A A119U A138G: the “polymerase ribozyme fitness (log ratio)” value was no more than -4.2.
With A39C G46A C93G A98C C129G, the “polymerase ribozyme fitness (log ratio)” value was no more than -4.2.
On to A37U A39U A41C C85A A113G A120G C125U A137U, for which the “polymerase ribozyme fitness (log ratio)” value was no more than -4.2.
For the variant A37U C54U C93U, the “polymerase ribozyme fitness (log ratio)” value is -2.44.
Take A39C C96U A97U A142U G143C: the “polymerase ribozyme fitness (log ratio)” value was no more than -4.2.
For the variant A37G C38A G48U, the “polymerase ribozyme fitness (log ratio)” value was -2.25.
Consider A37C C95G G140C, for which the “polymerase ribozyme fitness (log ratio)” value was no more than -4.2.
In the case of C38G A73U C95A U146G it was -2.85.
A39C A40C G70C G88C U109C: the “polymerase ribozyme fitness (log ratio)” value was no more than -4.2.
As to C38A G58C C87U, the “polymerase ribozyme fitness (log ratio)” value is -0.072.
